# Source: the supplement of paper PMC10441789
# The list shows a part of the results. Antibody binding of pooled human sera (four to six donors per pool; dilution not stated) to peptides of the Trypanosoma cruzi antigen TSSA on microarrays. Quantile-normalised fluorescence in arbitrary units, mean of duplicate arrays; higher = more binding. No active / inactive call. The uninfected pools are read here as the healthy donors of the same country. The strongest signals lie near the top of the scale (about 60,000).
# What was measured:
# Test in all cases: antibody binding signal (normalised fluorescence) (arbitrary fluorescence units); higher = stronger serum antibody binding to peptide
# [1] = test system: pooled sera of chronic Chagas disease patients, Bolivia
# Experimental: (§1)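 Microarray of 15-residue peptides over residues 30-55 of Trypanosoma cruzi TSSAII, each with 1 to 10 substitutions at naturally variable positions, probed with one serum pool per country.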
# [2] = test system: pooled sera of chronic Chagas disease patients, Brazil
# Experimental: as §1
# [3] = test system: pooled sera of chronic Chagas disease patients, Colombia
# Experimental: as §1
# [4] = test system: pooled sera of chronic Chagas disease patients, Mexico
# Experimental: as §1
# [5] = test system: pooled sera of chronic Chagas disease patients, USA
# Experimental: as §1
# [6] = test system: pooled sera of uninfected people, Argentina
# Experimental: as §1
# [7] = test system: pooled sera of uninfected people, Bolivia
# Experimental: as §1
# [8] = test system: pooled sera of uninfected people, Brazil
# Experimental: as §1
# [9] = test system: pooled sera of uninfected people, Colombia
# Experimental: as §1
# [10] = test system: pooled sera of uninfected people, Mexico
# Experimental: as §1
# [11] = test system: pooled sera of uninfected people, USA
# Experimental: as §1
Sequence,antibody binding signal [1],antibody binding signal [2],antibody binding signal [3],antibody binding signal [4],antibody binding signal [5],antibody binding signal [6],antibody binding signal [7],antibody binding signal [8],antibody binding signal [9],antibody binding signal [10],antibody binding signal [11]
GKENKTAAGEAPSPP,536,9780,5770,5170,17200,436,132,139,167,206,139
PSGKDKKTATGETPS,736,2770,1920,2010,7220,208,219,105,116,92.7,117
GKEKKAAAGGAPSQP,219,971,1790,891,991,94,85.4,111,94.1,96.4,77.5
TPPSGKEKKTAAGGA,771,433,3730,22600,1130,440,224,115,161,120,152
EKKAAAGEAPSQPGA,7650,39500,866,301,7140,154,1150,122,129,252,1110
SGTEKKTAAGETPSQ,791,2280,647,708,2660,105,552,383,1040,165,124
KENKAAAGEAPSPSG,232,13400,170,222,10600,144,85,80.6,103,85.2,80.3
SSTPPSGKDNKAAAG,9540,3890,285,36400,2420,473,494,145,190,106,215
KDKKTAAGGTPSQSG,177,197,3310,223,1520,170,76.7,316,143,100,111
PSGTEKKTATGGAPS,668,4960,4140,4730,3510,552,490,136,131,307,317
PPSGTENKAAAGEAP,45800,48900,373,1420,16200,1770,430,263,540,246,666
TENKPATGETPSPPG,35900,35900,257,620,27200,334,426,368,146,1710,1450
SGKENKTATGETPSP,3830,12600,1690,1560,14900,6170,2610,184,482,682,770
GTDNKTATGGTPSQS,1080,27300,1080,652,667,430,789,2260,205,627,199
DNKAAAGGAPSPPGA,456,608,3730,272,895,364,371,237,533,476,229
PSGKDNKTATGETPS,1430,3220,2770,1490,6860,358,422,318,298,140,185
SGKDKKAAAGETPSQ,240,746,1180,970,1520,117,79.2,90.7,318,78.1,78.8
SGKEKKAAAGGAPSQ,243,2850,6260,7350,6500,152,82.5,114,115,88.1,94.9
GKENKAATGETPSQS,1930,27400,17900,14000,24800,530,231,118,170,153,241
KAAAGGTPSQSGASS,214,414,4280,321,790,280,147,599,177,649,232
KTAAGEAPSQPGASS,11500,39300,173,814,4380,185,314,233,130,134,163
TEKKPAAGEAPSPSG,297,6990,359,330,14000,105,210,215,76.4,182,682
SGKDNKAATGETPSP,2670,17200,612,450,11100,223,376,164,296,186,939
TDNKAAAGEAPSQPG,23700,42400,214,173,13000,82.3,341,159,86,78.4,97.2
KDNKTAAGETPSQSG,297,1080,2010,246,487,480,258,244,267,160,169
ISTPPSGTENKTAAG,46900,56100,342,9080,31900,4350,752,510,859,455,683
DNKTAAGETPSPPGA,288,715,252,305,808,155,320,256,204,261,395

Sequence,antibody binding signal [1],antibody binding signal [2],antibody binding signal [3],antibody binding signal [4],antibody binding signal [5],antibody binding signal [6],antibody binding signal [7],antibody binding signal [8],antibody binding signal [9],antibody binding signal [10],antibody binding signal [11]
GTDNKTAAGGTPSPP,239,20200,4350,330,1490,260,717,2900,364,1450,170
GKDKKTATGETPSPP,606,1050,3270,3090,6370,192,118,104,118,80.1,213
KEKKTATGETPSPSG,221,259,232,234,4350,275,115,101,102,119,840
KDNKTATGETPSPPG,361,2610,2220,187,7090,504,298,230,291,151,1520
DNKPATGEAPSPPGA,52000,50600,305,184,39500,827,376,365,146,220,172
GTDKKAATGEAPSPS,20300,26600,1980,677,27100,521,208,253,502,306,163
ENKAATGETPSPSGA,5680,20900,261,183,14400,207,238,122,118,141,985
KEKKAATGGTPSPPG,277,135,428,210,518,135,76.9,202,358,68.4,88.9
SGKENKAATGGTPSQ,630,17800,6650,4540,18900,7580,1710,182,327,255,223
DKKTATGGTPSQSGA,459,490,2760,760,1420,397,105,282,513,466,140
GTDKKPAAGGAPSPP,429,1110,11200,1010,1460,225,312,225,145,642,176
GTDKKPATGETPSPS,24700,29500,6610,586,20500,153,419,257,252,2110,1800
TPPSGKDNKTATGGA,354,2060,1140,31800,2680,656,398,139,233,94.9,245
TENKTATGETPSPSG,1790,1960,237,258,7890,138,220,185,153,301,2550
GKENKPAAGEAPSPP,701,28900,3830,5320,18700,628,313,144,134,335,95.5
SSTPPSGTENKTAAG,53400,60000,395,8240,29400,4770,532,511,893,526,746
SSTPPSGTDKKPAAG,6540,46100,14200,42600,11200,1290,608,306,301,3360,699
TISTPPSGTENKPAT,51200,51800,1420,5370,33100,7830,1230,585,855,760,830
DNKAAAGETPSPSGA,322,5740,191,251,1260,160,323,213,116,342,621
PSGTENKPAAGGAPS,34200,44800,5300,5920,13300,1940,3470,952,581,686,566
TISTPPSGTDKKAAA,5220,34700,8250,41300,3080,1560,258,202,336,1390,607
SGTEKKPAAGGAPSP,339,4200,7720,2300,2420,213,1050,565,157,350,1190
SGKENKTATGETPSQ,3950,14800,1700,2100,17200,7030,3090,232,630,771,198
ISTPPSGTENKPAAG,52400,52600,442,12800,41100,8840,1720,830,1130,674,1180
GTENKAAAGGTPSQS,347,584,2960,1090,1590,213,483,1810,317,285,111
GKEKKAAAGGTPSPP,193,256,1780,1100,1970,110,83.7,452,106,86.1,114
